# Results reported in the supplement of paper PMC8728848.
# The other results are listed elsewhere or left out.
# Tests used:
# Assay in all cases: glycan array binding signal (z-score within array); higher = stronger binding
# Details in all cases: glycan notation: IUPAC condensed, linker removed
# [1] = target: Neu5Ac(a2-3)Gal(b1-4)GlcNAc(b1-3)Gal(b1-4)[Fuc(a1-3)]GlcNAc
# Summary of the method: (§1)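 Arrays were curated from the Consortium for Functional Glycomics database, 3228 in total, and kept only where the protein sequence was available. Binding is expressed as a within-array Z-score. This score was averaged across arrays of the same protein sequence at different concentrations or buffers and across linkers, and negative values can be read as non-binding.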
# [2] = target: Neu5Ac(a2-3)Gal(b1-4)GlcNAc(b1-6)[Gal(b1-3)]GalNAc
# Summary of the method: as §1
# [3] = target: Neu5Ac(a2-3)Gal(b1-4)GlcNAc6S
# Summary of the method: as §1
# [4] = target: Neu5Ac(a2-3)Gal(b1-4)[Fuc(a1-3)]GlcNAc
# Summary of the method: as §1
# [5] = target: Neu5Ac(a2-3)Gal(b1-4)[Fuc(a1-3)]GlcNAc(b1-3)Gal
# Summary of the method: as §1
# [6] = target: Neu5Ac(a2-3)Gal(b1-4)[Fuc(a1-3)]GlcNAc(b1-3)Gal(b1-4)GlcNAc
# Summary of the method: as §1
# [7] = target: Neu5Ac(a2-3)Gal(b1-4)[Fuc(a1-3)]GlcNAc(b1-3)Gal(b1-4)[Fuc(a1-3)]GlcNAc(b1-3)Gal(b1-4)[Fuc(a1-3)]GlcNAc
# Summary of the method: as §1
# [8] = target: Neu5Ac(a2-3)Gal(b1-4)[Fuc(a1-3)]GlcNAc6S
# Summary of the method: as §1
# [9] = target: Neu5Ac(a2-3)Gal6S(b1-4)GlcNAc
# Summary of the method: as §1
# [10] = target: Neu5Ac(a2-3)Gal6S(b1-4)[Fuc(a1-3)]GlcNAc
# Summary of the method: as §1
# Neu5Ac(a2-3)GalNAc = target: Neu5Ac(a2-3)GalNAc
# Summary of the method: as §1
# [11] = target: Neu5Ac(a2-3)GalNAc(b1-4)GlcNAc
# Summary of the method: as §1
# [12] = target: Neu5Ac(a2-3)[GalNAc(b1-4)]Gal(b1-4)Glc
# Summary of the method: as §1
# [13] = target: Neu5Ac(a2-3)[GalNAc(b1-4)]Gal(b1-4)GlcNAc
# Summary of the method: as §1
# [14] = target: Neu5Ac(a2-3)[Neu5Ac(a2-6)]GalNAc
# Summary of the method: as §1
# [15] = target: Neu5Ac(a2-6)Gal(b1-4)GlcNAc
# Summary of the method: as §1
# [16] = target: Neu5Ac(a2-6)Gal(b1-4)GlcNAc(b1-2)Man(a1-3)[Neu5Ac(a2-6)Gal(b1-4)GlcNAc(b1-2)Man(a1-6)]Man(b1-4)GlcNAc(b1-4)GlcNAc
# Summary of the method: as §1
# [17] = target: Neu5Ac(a2-6)Gal(b1-4)GlcNAc(b1-3)Gal(b1-4)GlcNAc
# Summary of the method: as §1
# [18] = target: Neu5Ac(a2-6)Gal(b1-4)GlcNAc(b1-3)Gal(b1-4)[Fuc(a1-3)]GlcNAc(b1-3)Gal(b1-4)[Fuc(a1-3)]GlcNAc
# Summary of the method: as §1
# [19] = target: Neu5Ac(a2-6)Gal(b1-4)GlcNAc6S
# Summary of the method: as §1
# Neu5Ac(a2-6)GalNAc = target: Neu5Ac(a2-6)GalNAc
# Summary of the method: as §1
# [20] = target: Neu5Ac(a2-6)GalNAc(b1-4)GlcNAc
# Summary of the method: as §1
# Neu5Ac(a2-8)Neu5Ac = target: Neu5Ac(a2-8)Neu5Ac
# Summary of the method: as §1
# [21] = target: Neu5Ac(a2-8)Neu5Ac(a2-3)Gal(b1-4)Glc
# Summary of the method: as §1
# [22] = target: Neu5Ac(a2-8)Neu5Ac(a2-3)[GalNAc(b1-4)]Gal(b1-4)Glc
# Summary of the method: as §1
# [23] = target: Neu5Ac(a2-8)Neu5Ac(a2-8)Neu5Ac
# Summary of the method: as §1
# [24] = target: Neu5Ac(a2-8)Neu5Ac(a2-8)Neu5Ac(a2-3)Gal(b1-4)Glc
# Summary of the method: as §1
# [25] = target: Neu5Ac(a2-8)Neu5Ac(a2-8)Neu5Ac(a2-3)[GalNAc(b1-4)]Gal(b1-4)Glc
# Summary of the method: as §1
# [26] = target: Neu5Ac(a2-8)Neu5Ac(a2-8)Neu5Ac(a2-8)Neu5Ac(a2-3)[GalNAc(b1-4)]Gal(b1-4)Glc
# Summary of the method: as §1
# [27] = target: Neu5Ac9Ac(a2-6)Gal(b1-4)GlcNAc
# Summary of the method: as §1
# [28] = target: Neu5Gc(a2-3)Gal(b1-3)GlcNAc
# Summary of the method: as §1
# [29] = target: Neu5Gc(a2-3)Gal(b1-3)[Fuc(a1-4)]GlcNAc
# Summary of the method: as §1
# Neu5Gc(a2-3)Gal(b1-4)Glc = target: Neu5Gc(a2-3)Gal(b1-4)Glc
# Summary of the method: as §1
# [30] = target: Neu5Gc(a2-3)Gal(b1-4)GlcNAc
# Summary of the method: as §1
# [31] = target: Neu5Gc(a2-3)Gal(b1-4)[Fuc(a1-4)]GlcNAc
# Summary of the method: as §1
# [32] = target: Neu5Gc(a2-6)Gal(b1-4)GlcNAc
# Summary of the method: as §1
# Neu5Gc(a2-6)GalNAc = target: Neu5Gc(a2-6)GalNAc
# Summary of the method: as §1
binder,measurement,setting,value
"X56-1 (Clostridium perfringens), P26831 (protein) MGSSHHHHHHSSGLVPRGSHMASDPNRIIATYISNRQDAPTGNPDNIFDNNASTELVYKNPNRIDVGTYVGVKYSNPITLNNVEFLMGANSNPNDTMQKAKIQYTVDGREWIDLEEGVEYTMPGAIKVENLDLKVRGVRLIATEARENTWLGVRDINVNKKEDSNSGVEF",glycan array binding signal (z-score),[1],-0.236
same,glycan array binding signal (z-score),[2],-0.233
same,glycan array binding signal (z-score),[3],-0.296
same,glycan array binding signal (z-score),[4],-0.338
same,glycan array binding signal (z-score),[5],0.071
same,glycan array binding signal (z-score),[6],0.004
same,glycan array binding signal (z-score),[7],-0.163
same,glycan array binding signal (z-score),[8],1.06
same,glycan array binding signal (z-score),[9],-0.26
same,glycan array binding signal (z-score),[10],-0.221
same,glycan array binding signal (z-score),Neu5Ac(a2-3)GalNAc,-0.264
same,glycan array binding signal (z-score),[11],-0.259
same,glycan array binding signal (z-score),[12],-0.338
same,glycan array binding signal (z-score),[13],-0.387
same,glycan array binding signal (z-score),[14],-0.193
same,glycan array binding signal (z-score),[15],-0.238
same,glycan array binding signal (z-score),[16],-0.264
same,glycan array binding signal (z-score),[17],-0.318
same,glycan array binding signal (z-score),[18],-0.436
same,glycan array binding signal (z-score),[19],-0.039
same,glycan array binding signal (z-score),Neu5Ac(a2-6)GalNAc,-0.26
same,glycan array binding signal (z-score),[20],0.236
same,glycan array binding signal (z-score),Neu5Ac(a2-8)Neu5Ac,0.047
same,glycan array binding signal (z-score),[21],0.954
same,glycan array binding signal (z-score),[22],0.045
same,glycan array binding signal (z-score),[23],-0.066
same,glycan array binding signal (z-score),[24],-0.334
same,glycan array binding signal (z-score),[25],-0.067
same,glycan array binding signal (z-score),[26],-0.219
same,glycan array binding signal (z-score),[27],-0.18
same,glycan array binding signal (z-score),[28],-0.144
same,glycan array binding signal (z-score),[29],-0.273
same,glycan array binding signal (z-score),Neu5Gc(a2-3)Gal(b1-4)Glc,-0.411
same,glycan array binding signal (z-score),[30],-0.119
same,glycan array binding signal (z-score),[31],0.014
same,glycan array binding signal (z-score),[32],-0.154
same,glycan array binding signal (z-score),Neu5Gc(a2-6)GalNAc,-0.354
